The text below walks through data of the RNAGym collection of RNA variant scans (doi:10.7554/elife.90254).

The chains are these.
B1: LINE1-full (parent)
chain: UACGUAGGUGGUUUUCCCCUGAUAGUGCUAAGGGGGCCUGGAAGUUUGGACUGGGCAGAGCUCAACACAGCGUGGCAAAGUGGCUGUGGCUAGACUGCCUCUCUGGAUUCCUCGUCACUCAGCAGGGCAUCUCUGAGAGAAAUGCC

The source gives no read counts; variants with many changes may rest on few reads.

Variants of B1 are the subject of this data set. In words: self-cleavage, relative activity (ratio to wild type); higher = more cleavage; in vitro, sequencing; the parent is a self-cleaving ribozyme.
With UACGUAGGUGGUUUUCCCCUGAUGGUGCUAAGGGGGCCUGGAAGUUUGGACUGGGCAGAGCUCAACACAGCGUGGCAAGGUGGCCGUGGCUAGACUGCCUCUCUGGAUUCCUCGUCACUCAGCAGGGCAUCUCUGAGAGAAAUGCC [A24G A79G U85C], the self-cleavage stood at 0.3. Next, UACGUAGGUGGUUUUCCCCUGAUGGUGCUAAGGGGGCCUGGAAGUUUGGACUGGGCAGAGCUCAGCACAGCGUGGCAAAGUGGCUGUGGCUAGACUGCCUCUCUGGAUUCCUCGUCACUCAGCAGGGCAUCUCUGAGAGGAAUGCC [A24G A65G A140G]: 0.09. Consider UACGUAGGUGGUUUUCCCCUGAUGGUGCUAAGGGGGCCUGGAAGUUUGGACUGGGCAGAGCUCAACACAGCGUGGCGAAGUGGCUGUGGCUAGACUGCCUCUCUGGAUUCCUCGUCACUCAGCAGGGCAUCUCUGAGUGAAAUGCC [A24G A77G A138U], for which the self-cleavage was determined as 1.98. UACGUAGGUGGUUUUCCCCUGAUGGUGCUAGGGGGGCCUGGGAGUUUGGACUGGGCAGAGCUCAACACAGCGUGGCAAAGUGGCUGUGGCUAGACUGCCUCUCUGGAUUCCUCGUCACUCUGCGGGGCAUCUCUGAGAGAAAUGCC [A24G A31G A42G A121U A124G]: the self-cleavage turned out to be 1.31. Next, UACGUAGGUGGUUUUCCCCUGAUGGUGCUAAGGGGGCCUGGAAGUUUGGACUGGGCAGAGCUCAACACAGCGUGGCAAAGUGGCUGUGGCUAGUCUGCCUCUCUGGAUUCCUCGUCACUCAGCAGGGCAUCUCUGAGAGAAGUGCC [A24G A94U A142G]: 0.37; UACGUAGGUGGUUUUCCCCUGAUGGUGCUAAGGGGGCCUGGAAGUUUGGACUGGGCAGAGCUCAACACAGCGUGGCAAAGUGGCUGUGGCUAGACUGCCUCUCUGGAUUCCUCGUCACUCAGCAGGGCUUCUCUGAGAGAGAUGCC [A24G A129U A141G]: 1.8. As for UACGUAGGUGGUUUUCCCCUGAUGGUGCUAAGGGGGCCUGGAAGUUUGGACUGGGCAGAGCUCAACACGGCGUGGCAAAGUGGCUGCGGCUAGACUGCCUCUCUGGAUUCCUCGUCACUCAGCAGGGCAUCUCUGAGGGAAAUGCC [A24G A69G U87C A138G], the self-cleavage was 0. For UACGUAGGUGGUUUUCCCCUGAUGGUGCUAAGGGGGCCUGGAGGUUUGGACUGGGCAGAGCUCAACACAGCGUGGCAAAGUGGGUGUGGCUAGACUGCCUCUCUGGAUUCCUCGUCACUCAGCAGGGCAUGUCUGAGAGAAGUGCC [A24G A43G C84G C131G A142G], the self-cleavage amounted to 0.5. For UACGUAGGUGGUUUUCCCCUGAUGGUGCUAAGGGGGCCUGGAAGUUUGGACUGGGCUGAGCUCGACGCAGCGUGGCAAAGUGGCUGUGGCUAGACUUCCUCUCUGGAUUCCUCGUCAUUCAGCAGGGCAUCUCUGAGGGAAAUGCC [A24G A57U A64G A67G G97U C118U A138G], the self-cleavage amounted to 0.19. In the case of UACGUAGGUGGUUUUCCCCUGAUCGUGCUAAGGGGGCCUGGAAGUUUGGACUGGGCAGAGCCCAACACAGCGUGGCAAAGUGGCUGUGGCUAGACUGCCUCUCUGGAUUCCUCGUCACUCAGCGGAGCUUCUCUGAGAGAAAUGCC [A24C U62C A124G G126A A129U] it was 0.12; in that of UACGUAGGUGGUUUUCCCCUGAUGGUGCUAAGGGGGCCUGGAAGUUUGGACUGGGCAGAGCUCUACACAGCGUGGCAAGGUGGCUGUGGCUAGACUGCCUCUCUGGACUCCUCGUCACUCAGCAGGGCAUCUCUGAGAGAAAUGCC [A24G A64U A79G U108C], 0.77. Regarding UACGUAGGUGGUUUUCCCCUGAUGGUGCUAAGGGGGCCUGGAAGUUUGGACUGGGCAGAGCUCAUCACAGCGUGGCAAAGUGGCUGUGGCUAGACUGCCUCACUGGAUUCCUCGUCACCCAGCAGGGCAUCUCUGAGAGAAAUGCC [A24G A65U U102A U119C], the self-cleavage is 0.29.

As for UACGUAGGUGGUUUUCCCCUGAUGGUGCUAAGGGGGCCUGGAAGUUUGGACUGGGCAGAGCUCAACACAGCGUGGCGAAGUGGCUGUGGCUAGACUGCCUCUCUGGAUUCCUCGUCACUCAGCAGGGCAUCUCUGGGAGAAAUGCC [A24G A77G A136G], the self-cleavage was found to be 1.84. Consider UACGUAGGUGGUUUUCCCCUGAUGGUGCUAAGGGGGCCUGGAAGUUUGGACUGGGCAGUGCUCAACACAGCGUGGCAAAGUGGCUGUGGCUAGACUGCCUCUCAGGAUUCCUCGUCACUCAGCAGGGCAUCUCUGAGAGAAAUGCC [A24G A59U U104A], for which the self-cleavage worked out at 0.45.

Regarding UACGUAGGUGGUUUUCCCCUGAUGGUGCUAAGGGGGCCUGGAAGUUUGGACUGGGCAGAGCUCAACACAGCGUGGCAAAGUGGCUGUGGCUAGACUGCCUCUCUGGGUUCCUCGUCACUCAGCAGGGCAUCUCUGAGAGAAAUACC [A24G A107G G144A], the self-cleavage worked out at 2.14. UACGUAGGUGGUUUUCCCCUGAUGGUGCUAAGGGGGCCUGGAAGUUUGGACUGGGCUGAGCUCAACACAGCGUGGCAGAGUGGCUGUGGCUAGACUGCCUCUCUGGAAUCCUCGUCACUCAGCAGGGCAUCUCUGAGAGAAAUGCC [A24G A57U A78G U108A]: the self-cleavage was 0.28.

As for UACGUAGGUGGUUUUCCCCUGAUGGUGCUAAGGGGGCCUGGACGUUUGGACUGGGCAGAGCUCAACACAGCGUGGCAAAGUGGCUGUGGCUAGACUGCCUCUCUGGAUUCUUCGUCGCUCAGCAGGGCAUCCCUGAGAGAAAUGCC [A24G A43C C111U A117G U132C], the self-cleavage was 1.84. As for UACGUAGGUGGUUUUCCCCUGAUGGUGCUUAGGGGGCCUGGAAGUUUGGACUGGGCAGAGCUCAACACAGCGCGGCAAAGUGGCUGUGGCUAGACUGCCUCUCUGGAUUCCUCGUCACUCAGCAGGGCAUCUCUGAGAGAAAUGCC [A24G A30U U73C], the self-cleavage worked out at 2.45. In the case of UACGUAGGUGGUUUUCCCCUGAUGGUGCUUAGGGGGCCUGGAAGUUUGGACUGGGCAGAGCUCAACACAGCGUGGCAAAGUGGCUGUGGCUAGACUGCCUCUCUGGAUUCCUUGUCACUCAGCAGGGCAUCUCUGAGAGAAAUGCC [A24G A30U C113U] it was 0.72; in that of UACGUAGGUGGUUUUCCCCUGAUGGUGCUGAGGGGGCCCGGAAGUUUGGACUGGGCAGAGCUCAACACAGCGUGGCAAAGUGGCUGUGGCUAGACUGCCUCUCUGGAUUCCCCGUCACUCAGCAGGGCAUCUCUGAGAGAAAUGCC [A24G A30G U39C U112C], 0.
